Hit rate of the full screen: of about 420,000 compounds, about 64,000 (15%) were called active. The inconclusive results got no clear call from the source; some entries with a clear call stand among them for comparison. The call rests on the fitted dose curve; in most records, active means well fitted inhibition curve with a large enough effect; inconclusive means small, poorly fitted or top-dose-only effect; inactive means flat fitted curve, though single readings scatter. Potencies of inconclusive entries are left out as doubtful fits.
Assay: qHTS for Inhibitors of human tyrosyl-DNA phosphodiesterase 1 (TDP1): qHTS in cells in absence of CPT; further: nearly all actives have a fitted effect of over 55% in size
Conditions: DT40 Tdp1-/- hTDP1 cells, no CPT, ATP luminescence, 48 h; activity change, negative = growth inhibition: at 46.2 µM (top of the series) unless noted
Summary of the method: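 DT40 Tdp1-/-;hTDP1 cells, no CPT (DMSO vehicle only), 400 cells/well; compounds pin-transferred; ≥48 hr, 37 °C; CellTiter-Glo 30 min RT dark, luminescence read.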
On the % scale 0 is the no-effect control and ±100 the full control effect; potency means the concentration at half of the fitted maximal effect; tags describe the fitted curve by direction and shape.

SMILES | Potency | activity change, negative = growth inhibition
CCCCOc1ccc(CNC(=O)c2cccc(NC(=O)N3CCSc4ncccc43)c2)cc1 | active: 16.4 µM | –
O=C(NCc1ccc(F)cc1)c1ccc(S(=O)(=O)N2CCCC2)cc1 | inconclusive [inhibitor, partial curve, poor fit] | –
O=C(N/N=C/c1ccc2c(c1)OCO2)C(=O)Nc1cccc(Cl)c1 | – | inactive: -1.7%
Cc1noc(C)c1-c1cc(NCc2cccnc2)ncn1 | – | inactive: 2.95%
Cc1ccc(CNC(=O)c2ccc([N+](=O)[O-])o2)cc1 | inconclusive [inhibitor, single point] | –
CCOc1ccc(NC(=O)c2cc(C)nc3ccccc23)cc1 | – | inactive: -0.374%
O=C(O)/C=C\C(=O)Nc1ccccc1C(=O)NC1CCCCC1 | – | inactive: -3.75%
O=C/C=C/c1coc2ccc3ccccc3c2c1=O | inconclusive [inhibitor, single point] | –
CCCCn1c(N)nc2ccccc21 | – | inconclusive: -34.3% [inhibitor]
O=C(NCC1COc2ccccc2O1)C1CCCN(S(=O)(=O)c2cccc3nsnc23)C1 (configuration not stated) | inconclusive [inhibitor, single point] | –
Cc1cc(N2CCOCC2)c2c(N)c(C)cc(C)c2n1 | inconclusive [inhibitor, partial curve] | –
CCCCN(C)c1c(C)nc2ccc(C(=O)NCc3cccs3)cn12 | inconclusive [inhibitor, single point] | –
CCOC(=O)C1(Cc2cccc(OC)c2)CCN(Cc2cccc3cnccc23)CC1 | inconclusive [inhibitor, single point] | –
COc1ccc(-c2cc(C(=O)Nc3cc(Cl)ccc3O)no2)cc1 | inconclusive [inhibitor, single point] | –
CCc1nn(CC(=O)NC2CC2)c(=O)c2cc3c(OC)cccc3n12 | inconclusive [inhibitor, partial curve, poor fit] | –
O=C(c1cnc2n(c1=O)CCS2)N(C1CCCCC1)C1CCCCC1 | active: 23.1 µM | –
CCC(Sc1nc(N)c(NC(=O)c2ccc(OC)cc2)c(=O)[nH]1)C(=O)O (configuration not stated) | – | inactive: 1.88%
CC/C(=N/Nc1ccccc1Cl)c1cnnc(-c2ccccc2)n1 | inconclusive [inhibitor, single point] | –
O=C(Nc1ccncc1)C1CCN(S(=O)(=O)c2ccccc2C(F)(F)F)CC1 | active: 25.9 µM | –
COc1ccc(/C=N/NC(=O)Cn2nc(C)c([N+](=O)[O-])c2C)cc1 | inconclusive [inhibitor, single point] | –
O=C(CCc1nc(CN2CCN(S(=O)(=O)c3ccc(Br)cc3)CC2)no1)N1CCCCC1 | inconclusive [inhibitor, partial curve, poor fit] | –
Cc1ccc2[nH]c(=O)c(CN(Cc3cccs3)Cc3nnnn3Cc3ccco3)cc2c1 | active: 17.8 µM | –
COc1ccc(-n2ncc3c(NCCCOC(C)C)ncnc32)cc1 | inconclusive [inhibitor, single point] | –
NC(=O)c1cc[n+](CC(=O)c2ccc(NC(=O)c3ccccc3)cc2)cc1 | inconclusive [inhibitor, single point] | –

SMILES | Potency | activity change, negative = growth inhibition
Oc1ccc2ccccc2c1N=Nc1ccccc1F | inconclusive [inhibitor, single point] | –
CC(=O)Nc1ccc(N2C(=O)CSC2c2c(F)cccc2Cl)cc1 (configuration not stated) | – | inactive: -13.6%
C/C=C(\C)C(=O)OC(C)(C)[C@H]1Cc2cc3ccc(=O)oc3cc2O1 | inconclusive [inhibitor, partial curve] | –
Cc1cccc(N2CCN(C(c3ccccc3)c3nnnn3CC3CCCO3)CC2)c1C (configuration not stated) | active: 11.6 µM | –
CC(C)Oc1ccc(/C=C/C(=O)NCC2COc3ccccc3O2)cc1 (configuration not stated) | inconclusive [inhibitor, single point] | –
Cn1c(=O)c2cc(NCc3ccccc3)nnc2n(C)c1=O | inconclusive [inhibitor, partial curve] | –
COc1cccc(Cn2cc(C(=O)c3ccccc3)c(=O)c3cc4c(cc32)OCO4)c1 | inconclusive [inhibitor, single point] | –
CO/N=C(/C(=O)N[C@@H]1C(=O)N2C(C(=O)OCOC(=O)C(C)(C)C)=C(C)CS[C@H]12)c1csc(N)n1 | inconclusive [inhibitor, partial curve] | –
COc1cc(NC(=O)Cn2c(=O)n(CC3CCC(C(=O)NCCc4ccccc4)CC3)c(=O)c3ccccc32)cc(OC)c1 (configuration not stated) | inconclusive [inhibitor, partial curve] | –
CCCCN1CC(COC)Oc2cccc(F)c2S1(=O)=O (configuration not stated) | – | inactive: 0.193%
CC1CCN(CCCNC(=O)C2CCCN(c3ncnc4c3nc3n4CCCCC3)C2)CC1 (configuration not stated) | – | inactive: -14.4%
Cc1cccc(-c2noc(-c3ccno3)n2)c1 | – | inactive: -18.4%
[O-]c1n[n+](-c2ccc(Cl)cc2Cl)cc2ccccc12 | – | inactive: -22.2%
COc1ccc(Cl)cc1-c1nc(SCC(=O)NC2CCCC2)n[nH]1 | inconclusive [inhibitor, single point] | –
COCC1CCCN(C(=O)c2ccc(OC3CCN(Cc4ccccn4)CC3)cc2)C1 (configuration not stated) | – | inactive: -22.6%
CCc1ccccc1NC(=O)CN(C)C(=O)Cn1ncc(Cl)c(Cl)c1=O | active: 6.51 µM | –
COc1ccccc1NC(=S)N(Cc1cccnc1)Cc1ccccc1Cl | inconclusive [inhibitor, single point] | –
CCn1cnc2cc(NCc3nc4ccccc4n3Cc3ccccc3)ccc21 | inconclusive [inhibitor, single point] | –
CCc1nc(SCC(=O)Nc2ccccc2Cl)n[nH]1 | – | inactive: -17.6%
Cc1ccc(NCc2cccn2-c2nnc(N3CCC(C(=O)NCCc4ccc(Cl)cc4)CC3)s2)cc1 | active: 13 µM | –
CCc1ccc(C(=O)c2cn(CC(=O)Nc3ccc4c(c3)OCCO4)c3ccc(F)cc3c2=O)cc1 | – | inactive: -17.6%
Cc1ccccc1OCC(=O)NNC(=S)NC(=O)c1ccco1 | active: 10 µM | –
CCCCC(=O)NC(c1cccc([N+](=O)[O-])c1)c1c(OC(C)=O)ccc2ccccc12 (configuration not stated) | inconclusive [inhibitor, single point] | –
Cn1c(=O)c2c(ncn2CC(=O)N2CCN(c3ccc(F)cc3)CC2)n(C)c1=O | inconclusive [inhibitor, single point] | –

SMILES | Potency | activity change, negative = growth inhibition
COc1cccc(OCCn2cc(/C=N/NC(=O)c3ccncc3)c3ccccc32)c1 | inconclusive [inhibitor, single point] | –
Cc1cccc(OCC(=O)NCC(=O)N/N=C/c2ccc(O)cc2O)c1 | active: 5.8 µM | –
Cc1csc2ncnc(NCCc3ccccn3)c12 | active: 3.66 µM | –
COc1ccc(/C(C)=N/NC(=O)CNC(=O)c2cccnc2)cc1OC | – | inactive: -4.21%
CN(Cc1cccc(Cl)c1Cl)C(=O)c1ccc(NC(=O)CC#N)cc1 | inconclusive [inhibitor, partial curve] | –
COc1cccc(CN(C)C(=O)c2ccc(Cl)c(S(=O)(=O)N3CCCCCC3)c2)c1OC | inconclusive [inhibitor, single point] | –
COc1ccc(-n2c(C)nc3c(cnn3-c3ccc(F)cc3)c2=O)cc1 | active: 16.4 µM | –
C=CCNC(=S)N/N=C/c1ccc(-c2cc(Cl)ccc2Cl)o1 | inconclusive [inhibitor, partial curve, poor fit] | –
COc1ccc(N2CCN(C(CNS(=O)(=O)c3ccc(C)cc3)c3ccccc3)CC2)cc1 (configuration not stated) | inconclusive [inhibitor, single point] | –
COc1ccccc1CNC(=O)C1CCN(c2nc3ccc(Cl)cc3[nH]2)CC1 | inconclusive [inhibitor, single point] | –
CCCS(=O)(=O)c1nc(S(=O)(=O)c2ccc(C)cc2)c(N2CCN(CC)CC2)s1 | – | inactive: -8.95%
O=C(NC(=S)N(CCc1ccccc1)CCc1ccccc1)c1ccco1 | active: 11.6 µM | –
CN(C)Cc1ccccc1-c1cc(Nc2ccccc2)ncn1 | – | inactive: -9.31%
Cc1onc(C(=O)Nc2sc3c(c2C(N)=O)CCCC3)c1[N+](=O)[O-] | inconclusive [inhibitor, single point] | –
CC(C)(O)C#Cc1ccc(CN2CCCC(CO)(Cc3cccc(Cl)c3)C2)cc1 (configuration not stated) | active: 14.6 µM | –
O=C(NCc1nnc2n1CCN(Cc1cc(F)cc(F)c1)CC2)c1cccc(F)c1 | active: 4.61 µM | –
CN(CC1CCCN(CCc2ccc(Cl)cc2)C1)C(=O)CC(F)(F)F (configuration not stated) | inconclusive [inhibitor, single point] | –
CC(OC(=O)Cn1c(C(F)(F)F)nc2ccccc21)C(=O)N1CCCc2ccccc21 (configuration not stated) | – | inconclusive: -33.2% [inhibitor]
CCCCc1ccc(-n2nc3cc(C)c(NC(=O)c4ccc(C#N)cc4F)cc3n2)cc1 | – | inactive: -23.7%
CC(=O)N1CCN(CC(=O)Nc2ccc(C)c(S(=O)(=O)N(C)C)c2)CC1 | inconclusive [inhibitor, single point] | –
COc1ccc(CCNC(=O)CN2c3cccc4cccc(c34)S2(=O)=O)cc1 | inconclusive [inhibitor, single point] | –
COc1ccccc1/C=C/C(=O)OCCCN(C)C | – | inactive: 3.04%
O=C(Nc1ncc(Br)s1)C(Cc1ccccc1)n1cccc1 (configuration not stated) | inconclusive [inhibitor, single point] | –
COc1cc(NC(=O)CN2C(=O)NC(c3ccccc3)(c3ccccc3)C2=O)c(C)cc1[N+](=O)[O-] | inconclusive [inhibitor, single point] | –

— PubChem BioAssay AID686978 (National Center for Advancing Translational Sciences (NCATS), 2013)
